Data as given in PubChem BioAssay (NCATS).
This list was built around the results that the source calls inconclusive (neither active nor inactive); the mix of calls is not that of the screen. For some assays here: Potencies of inconclusive entries are doubtful fits and often do not repeat. Activity calls are given as the source filed them. Calls follow the shape of the dose curve; as a rule, active = well fitted curve in the direction sought with a large enough effect; inconclusive = small, poorly fitted or top-dose-only effect, or another doubt; inactive = no such curve, though single readings can be large; an effect the other way counts as inactive or inconclusive.

Legend:
[1] = qHTS of pediatric cancer cell lines to identify multiple opportunities for drug repurposing: Primary screen for NB-EBc1 cells (AID 1347095)
Method in brief: (§1)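 Primary screen of approved and investigational compounds on cells in growth media at 37 degrees C, 5% CO2. MIPE set at 11-point and NPC set at 8-point dilutions; viability scored by ATP-based luminescence at 48 hours.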

[2] = qHTS of pediatric cancer cell lines to identify multiple opportunities for drug repurposing: Primary screen for U-2 OS cells (AID 1347096); also: nearly all actives have a fitted effect of over 50% in size
Method in brief: (§2)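 Cells (500-1,000/well) rested 5 h, then received compounds for 48 h; metabolically active cells were measured by CellTiter-Glo luminescence. Final concentrations spanned up to 46 µM (MIPE, 11-point) or 0.59 nM-46 µM (NPC, 8-point) in primary screens, 11-point in follow-ups.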

[3] = qHTS of pediatric cancer cell lines to identify multiple opportunities for drug repurposing: Primary screen for Saos-2 cells (AID 1347097); settings: Saos-2 viability, CellTiter-Glo ATP luminescence, 48 h; activity change, negative = cytotoxic: at 46 µM (top of the series); also: nearly all actives have a fitted effect of over 40% in size
Method in brief: as §1

[4] = qHTS of pediatric cancer cell lines to identify multiple opportunities for drug repurposing: Primary screen for BT-12 cells (AID 1347101); also: nearly all actives have a fitted effect of over 25% in size
Method in brief: as §2

[5] = qHTS of pediatric cancer cell lines to identify multiple opportunities for drug repurposing: Primary screen for OHS-50 cells (AID 1347103); also: nearly all actives have a fitted effect of over 40% in size
Method in brief: as §2

[6] = qHTS of pediatric cancer cell lines to identify multiple opportunities for drug repurposing: Primary screen for LAN-5 cells (AID 1347100); settings: LAN-5 neuroblastoma viability, CellTiter-Glo luminescence, 48 h; activity change, negative = cytotoxic: at 46 µM (top of the series)
Method in brief: as §2

[7] = qHTS of pediatric cancer cell lines to identify multiple opportunities for drug repurposing: Primary screen for RD cells (AID 1347104); also: nearly all actives have a fitted effect of over 55% in size
Method in brief: as §1

[8] = qHTS of pediatric cancer cell lines to identify multiple opportunities for drug repurposing: Primary screen for SK-N-SH cells (AID 1347098); settings: SK-N-SH viability, CellTiter-Glo luminescence, 48 h; activity change, negative = cytotoxic: at 57 µM (top of the series); also: nearly all actives have a fitted effect of over 65% in size
Method in brief: as §2

[9] = qHTS of pediatric cancer cell lines to identify multiple opportunities for drug repurposing: Primary screen for Rh18 cells (AID 1347102); also: nearly all actives have a fitted effect of over 65% in size
Method in brief: as §2

Measured: Potency
Potency is read from the fitted curve at half-maximal effect; tags tell the direction and shape of the fitted curve.

CC1(C)S[C@H]2[C@H](NC(=O)[C@@H](N)c3ccc(O)cc3)C(=O)N2[C@@H]1C(=O)O
inconclusive: [2] 14.8 µM [cytotoxic, single point] | [3] 5.9 µM [cytotoxic, partial curve] | [4] 13.7 µM [cytotoxic, partial curve] | [5] 4.32 µM [cytotoxic, partial curve]
active: [1] 16.6 µM

CCNC(=O)c1cc2c(-c3cc(OCCN4CCCC4)c(Cl)cc3Cl)nc(N)nc2s1
active: [1] 0.935 µM | [3] 3.72 µM | [6] 1.48 µM | [7] 1.48 µM
inactive: [2]

Cc1ccccc1-n1c(Cn2nc(-c3cccc(O)c3)c3c(N)ncnc32)nc2cccc(C)c2c1=O
active: [1] 0.0743 µM
inconclusive: [2] 5.9 µM [cytotoxic, full curve, poor fit] | [8] 0.607 µM [cytotoxic, full curve] | [6] 0.0418 µM [cytotoxic, full curve] | [4] 0.0611 µM [cytotoxic, full curve] | [9] 5.9 µM [cytotoxic, partial curve]

C[C@@H]1CCO[C@H]2Cn3cc(C(=O)NCc4ccc(F)cc4F)c(=O)c(O)c3C(=O)N12
inconclusive: [1] 20.9 µM [cytotoxic, single point] | [2] 18.7 µM [cytotoxic, partial curve, poor fit] | [3] 33.2 µM [cytotoxic, single point] | [6] 33.2 µM [cytotoxic, single point] | [4] 21.7 µM [cytotoxic, partial curve] | [9] 23.5 µM [cytotoxic, single point] | [5] 43.2 µM [cytotoxic, single point]
